By IC50 is meant the dose at which the fit gives 50% viability; a fit beyond the top or the lowest dose is shown as a bound at that dose. AUC sums up the same curve from the lowest dose to the 256-fold higher top dose; values near 1 show little effect. For some assays here: The top dose, if marked as inferred, was derived from the fitted curves, not read from the paper. For some assays here: Drugs with an entry number were screened twice under separate entries, and the two screens often disagree.
How the values were obtained:
Experiment in all cases: Viability of human cancer cell lines after 72 h of drug (GDSC screen)
BX-912 = compound: O=C(Nc1cccc(Nc2ncc(Br)c(NCCc3cnc[nH]3)n2)c1)N1CCCC1 [BX-912]; conditions: top dose 10.24 µM; top dose inferred
Method: (§1)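 Human cancer cell lines in 384-well plates, medium with 10% serum, drug for 72 h over a 256-fold dose range (nine 2-fold or five 4-fold steps up to the top dose). Adherent lines were fixed and stained with the nucleic acid dye Syto60, suspension lines read with resazurin; signal relative to control wells, capped at 0 and 100%. One two-parameter sigmoid per drug and line, fitted in a mixed model over all curves with the slope shared within a line.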

Tamoxifen = compound: CC/C(=C(\c1ccccc1)c1ccc(OCCN(C)C)cc1)c1ccccc1 [Tamoxifen]; conditions: top dose 5 µM
Method: as §1

NSC-87877 = compound: O=S(=O)(O)c1ccc2cc(N=Nc3cc(S(=O)(=O)O)c4cccnc4c3O)ccc2c1 [NSC-87877]; conditions: top dose 16 µM; top dose inferred
Method: as §1

LAQ824 = compound: O=C(/C=C/c1ccc(CN(CCO)CCc2c[nH]c3ccccc23)cc1)NO [LAQ824]; conditions: top dose 1.024 µM; top dose inferred
Method: as §1

OSI-930 = compound: O=C(Nc1ccc(OC(F)(F)F)cc1)c1sccc1NCc1ccnc2ccccc12 [OSI-930]; conditions: top dose 10.24 µM
Method: as §1

VNLG/124 = compound: CCCC(=O)OCc1ccc(OC(=O)/C=C(C)/C=C/C=C(C)/C=C/C2=C(C)CCCC2(C)C)cc1 [VNLG/124]; conditions: top dose 5.12 µM; top dose inferred
Method: as §1

Masitinib = compound: Cc1ccc(NC(=O)c2ccc(CN3CCN(C)CC3)cc2)cc1Nc1nc(-c2cccnc2)cs1 [Masitinib]; conditions: top dose 20 µM
Method: as §1

Elesclomol = compound: CN(NC(=O)CC(=O)NN(C)C(=S)c1ccccc1)C(=S)c1ccccc1 [Elesclomol]; conditions: top dose 0.2 µM; top dose inferred
Method: as §1

Bleomycin = compound: Cc1c(N)nc([C@H](CC(N)=O)NC[C@H](N)C(N)=O)nc1C(=O)N[C@H](C(=O)N[C@H](C)[C@@H](O)[C@H](C)C(=O)N[C@H](C(=O)NCCc1nc(-c2nc(C(=O)NCCC[S+](C)C)cs2)cs1)[C@@H](C)O)[C@@H](OC1OC(CO)C(O)C(O)C1OC1OC(CO)C(O)C(OC(N)=O)C1O)c1cnc[nH]1 [Bleomycin]
Method: as §1

[1] = top dose 50 µM, screen: GDSC drug entry 1378, top dose inferred
[2] = top dose 64 µM, screen: GDSC drug entry 190

| Cell Line | AUC (BX-912) | IC50 (BX-912) [µM] | AUC (Tamoxifen) | IC50 (Tamoxifen) [µM] | AUC (NSC-87877) | IC50 (NSC-87877) [µM] | AUC (LAQ824) | IC50 (LAQ824) [µM] | AUC (OSI-930) | IC50 (OSI-930) [µM] | AUC (VNLG/124) | IC50 (VNLG/124) [µM] | AUC (Masitinib) | IC50 (Masitinib) [µM] | AUC (Elesclomol) | IC50 (Elesclomol) [µM] | AUC (Bleomycin; [1]) | IC50 (Bleomycin; [1]) [µM] | AUC (Bleomycin; [2]) | IC50 (Bleomycin; [2]) [µM] |
| --- | --- | --- | --- | --- | --- | --- | --- | --- | --- | --- | --- | --- | --- | --- | --- | --- | --- | --- | --- | --- |
| NB12 (neuroblastoma, adherent) | 0.864 | > 10.2 | 0.967 | > 5 | 0.976 | > 16 | 0.512 | 0.0699 | 0.924 | > 10.2 | 0.953 | > 5.12 | 0.901 | > 20 | 0.705 | 0.0582 | 0.767 | 25.2 | 0.839 | > 64 |
| LCLC-103H (large cell lung carcinoma, adherent) | 0.874 | 8.35 | 0.99 | > 5 | 0.972 | > 16 | 0.272 | 0.0155 | 0.988 | > 10.2 | 0.982 | > 5.12 | 0.893 | > 20 | 0.818 | 0.0992 | 0.986 | > 50 | 0.156 | 0.404 |
| 5637 (bladder, adherent) | 0.621 | 1.33 | 0.979 | > 5 | 0.987 | > 16 | 0.359 | 0.0272 | 0.98 | > 10.2 | 0.989 | > 5.12 | 0.908 | > 20 | 0.653 | 0.0317 | 0.239 | 0.604 | 0.081 | < 0.25 |
| P32-ISH (Burkitt lymphoma, suspension) | 0.544 | 0.82 | 0.994 | > 5 | 0.985 | > 16 | 0.245 | 0.0149 | 0.938 | > 10.2 | 0.995 | > 5.12 | 0.791 | 6.66 | 0.619 | 0.0244 | 0.888 | 32.2 | 0.281 | 1.16 |
| SNU-423 (liver, adherent) | 0.733 | 3.36 | 0.948 | > 5 | 0.977 | > 16 | 0.327 | 0.0193 | 0.968 | > 10.2 | 0.962 | > 5.12 | 0.869 | > 20 | 0.538 | 0.0162 | 0.699 | 12.6 | 0.327 | 1.2 |
| SUP-HD1 (Hodgkin lymphoma, suspension) | 0.663 | 1.77 | 0.979 | > 5 | 0.976 | > 16 | 0.381 | 0.0306 | 0.87 | 8.78 | 0.988 | > 5.12 | 0.888 | > 20 | 0.983 | > 0.2 | 0.357 | 1.28 | 0.434 | 2.67 |
| CAL-29 (bladder, adherent) | 0.978 | > 10.2 | 0.953 | > 5 | 0.979 | > 16 | 0.501 | 0.0643 | 0.981 | > 10.2 | 0.985 | > 5.12 | 0.924 | > 20 | 0.331 | 0.00407 | 0.215 | 0.422 | 0.743 | 21.2 |
| SK-N-FI (neuroblastoma, adherent) | 0.909 | > 10.2 | 0.972 | > 5 | 0.986 | > 16 | 0.709 | 0.247 | 0.988 | > 10.2 | 0.988 | > 5.12 | 0.929 | > 20 | 0.75 | 0.065 | 0.9 | > 50 | 0.965 | > 64 |
| IPC-298 (melanoma, adherent) | 0.958 | > 10.2 | 0.986 | > 5 | 0.985 | > 16 | 0.58 | 0.105 | 0.966 | > 10.2 | 0.987 | > 5.12 | 0.882 | > 20 | 0.675 | 0.038 | 0.574 | 4.97 | 0.403 | 2.17 |
| LOUCY (T-cell lymphoblastic leukaemia, suspension) | 0.174 | 0.0862 | 0.975 | > 5 | 0.992 | > 16 | 0.189 | 0.00962 | 0.976 | > 10.2 | 0.739 | 1.31 | 0.893 | 16.1 | 0.665 | 0.0326 | 0.901 | 43.5 | 0.043 | < 0.25 |
| KARPAS-299 (anaplastic large cell lymphoma, suspension) | 0.931 | > 10.2 | 0.984 | > 5 | 0.988 | > 16 | 0.47 | 0.0537 | 0.97 | > 10.2 | 0.992 | > 5.12 | 0.876 | 14.3 | 0.881 | 0.149 | 0.812 | 21.4 | 0.768 | 20.1 |
| IST-SL1 (small cell lung carcinoma, semi-adherent) | 0.493 | 0.612 | 0.98 | > 5 | 0.982 | > 16 | 0.421 | 0.0386 | 0.974 | > 10.2 | 0.982 | > 5.12 | 0.753 | 6.87 | 0.727 | 0.0563 | 0.892 | > 50 | 0.807 | 33.9 |
| LU-139 (small cell lung carcinoma, suspension) | 0.886 | > 10.2 | 0.98 | > 5 | 0.972 | > 16 | 0.495 | 0.0617 | 0.929 | > 10.2 | 0.979 | > 5.12 | 0.753 | 8.4 | 0.756 | 0.0863 | 0.904 | > 50 | 0.917 | > 64 |
